According to patent EP1222921B1, “Pharmaceutical compositions of tizoxanide and/or nitazoxanide” (Romark Laboratories, L.C., priority 1997, dated 1998):

System: BCG (Bacille de Calmette et Guerin)
Details: 4 mg/mouse per day in 0.2 ml of sunflower oil

Structure (SMILES): CC(=O)Oc1ccccc1C(=O)Nc1ncc([N+](=O)[O-])s1 [Nitazoxanide, 2-(acetolyloxy)-N-(5-nitro 2-thiazoly) benzamide]
- results in treated mice versus izoniazide group: comparable to the group receiving izoniazide
